# Data as given in article PMC12040169 (PLOS Biology, 2025).
# The other results are listed elsewhere or left out.
# Test system: T1, C. trachomatis L2/434/Bu expressing GFP (CTL2-GFP)
# T1 construct: L2/434/Bu GFP intracellular growth in HeLa cells
# Set-up: species or system HeLa; C. trachomatis total inclusion area by high-content imaging, normalised to DMSO
# Details: total inclusion area; 28.5 h, 10 µM; inhibitor
# Procedure, shortened: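 Bulk GFP and resorufin signals were read first. Wells were then fixed, stained with Hoechst and imaged to detect GFP inclusions and host nuclei. MICs followed the previously described calculation.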
row,Structure (SMILES),% of control remaining
1,CCN1C(=O)N(CC)C2C1NC(=O)N2CCCC(=O)O (stereo not drawn) [CBK287131],107.092
2,O=C(c1ccco1)N1CCN(c2ccc(-c3cccc(Cl)c3Cl)cn2)CC1 [CBK037737],97.8459
3,COc1ccc(OC)c(N(CC(=O)N2CCN(C)CC2)S(=O)(=O)c2ccccc2)c1 [CBK264131],121.887
4,O=C(NC1CC1)C1(Cc2ccccc2-c2cccnc2)CCOCC1 [CBK285222],79.07
5,CCN1CCCC1CNS(=O)(=O)c1cc(C(N)=O)ccc1OC (stereo not drawn) [CBK267815],91.8933
6,CCOc1ccc(CNc2ccc(N3CCOCC3)c(C(=O)O)c2)cc1OC [CBK269192],101.929
7,COc1ccc2[nH]c(=O)c(CNc3ccc4c(c3)-c3ccccc3S(=O)(=O)N4)cc2c1 [CBK286409],104.438
8,O=C(c1cccc(-c2nnc(-c3ccccc3)o2)c1)N1CCN(C(=O)c2ccco2)CC1 [CBK269809],108.644
9,CCCc1cc(C(=O)NC2CCN(Cc3cccc(F)c3)CC2)[nH]n1 [CBK282465],94.5714
10,CS(=O)(=O)N(CC(=O)Nc1ccccc1C(=O)N1CCOCC1)c1ccc(F)c(Cl)c1 [CBK267931],103.198
11,c1ccc2nc(N3CCCC3)c(OC3CCOC3)nc2c1 (stereo not drawn) [CBK115769],105.388
12,O=C(c1ccccc1)c1cccc(OCCOc2nccnc2N2CCNCC2)c1 [CBK014250G],75.1914
13,COc1cccc(/C=C(/C#N)c2ccc(Cl)cc2)c1OCc1cccc(C(=O)O)c1 [CBK266721],118.545
14,COc1ccc(C(=O)N2CCC3(CCCN(CCc4c[nH]c5ccccc45)C3)C2)cc1OC (stereo not drawn) [CBK137143],74.6321
15,O=C(CCCc1ccccc1)Nc1ccccc1C(=O)O [CBK265516],111.336
16,O=C(C1CN(Cc2nc3ccsc3c(=O)[nH]2)c2ccccc2O1)N1CCOCC1 (stereo not drawn) [CBK295189],100.952
17,COc1ccccc1-c1ccc(CC2(C(=O)NCCc3ccc(F)cc3)CCOCC2)cc1 [CBK286520],67.8955
18,CC(c1ccccc1)c1nc2cnccn2c1NC(C)(C)C (stereo not drawn) [CBK283533],93.0563
19,O=C(CCNCCc1c[nH]c(=O)[nH]c1=O)Nc1cccc(Cl)c1 [CBK306889],62.6902
20,O=C(c1ccccn1)N1CCN(CCc2ccccc2)CC1 [CBK200201],106.317
21,COc1ccccc1N(CC(=O)NC(C(C)C)C(C)C)S(=O)(=O)c1ccccc1 [CBK101384],86.3127
22,CC(=O)Nc1ccc(-c2cncc(NC(C)CCCC(C)(C)O)n2)cc1 (stereo not drawn) [CBK065894],105.954
23,O=C(CCN1C(=O)/C(=C/c2ccc(F)cc2)SC1=S)NNC(=O)c1ccncc1 [CBK262821],101.336
24,Cc1cc(Br)ccc1NC(=O)c1cnc2sccn2c1=O [CBK246520],96.8615
25,COc1ccc(C2CC(Cn3cc(C(C)=O)c(=O)[nH]c3=O)ON2C)cc1 (stereo not drawn) [CBK019386],61.2031
26,CCOCC(=O)N(C)C1CCN(c2ncnc3ccccc23)CC1 [CBK306247],44.4946

row,Structure (SMILES),% of control remaining
1,CC[C@H]1CN(C(=O)c2ccnc(Cl)c2)CC[C@H]1CC(=O)O [CBK289139],128.651
2,COc1ccc(CNC(=O)C2CCCN(c3nc4c(-c5ccccc5)csc4c(=O)[nH]3)C2)cc1 (stereo not drawn) [CBK215464],102.132
3,Cc1nn(CC(=O)NC(C)(C)C)c(=O)c2cc3ccsc3n12 [CBK284082],81.9845
4,O=C(Cc1ccccc1)Nc1ccc2[nH]ncc2c1 [CBK288211],126.77
5,Cc1c(C(=O)O)sc2nc(C=Cc3cc([N+](=O)[O-])ccc3Cl)[nH]c(=O)c12 [CBK295613],114.371
6,C[C@@H](c1ccccc1)n1c(=O)[nH]c2ncc(-c3ccco3)nc21 [CBK064168],127.604
7,O=C(O)c1cc(S(=O)(=O)Nc2ccc3cc(Br)cnc3n2)c(F)cc1Cl [CBK073898],92.7911
8,Nc1cccc2c(OCCO)cccc12 [CBK001976C],3.862
9,Cc1ccc(C(=O)N[C@@H]2C[C@H](C)CC[C@H]2C(C)C)cc1C [CBK085823],85.6023
10,CC1CCc2nc(NC(=O)Cn3cccc(C(=O)Nc4ccc(F)cc4)c3=O)sc2C1 (stereo not drawn) [CBK286063],118.519
11,COc1ccc2[nH]c(CN3CCCC(c4nc(C)n[nH]4)C3)c(C)c2c1 (stereo not drawn) [CBK306904],66.6783
12,Cc1nc(CN2CCC(C(=O)c3ccc(F)cc3)CC2)cs1 [CBK149147],133.779
13,CCN(CC)C(=O)CN1CCN(c2nccnc2Oc2ccc(F)cc2)CC1 [CBK083020T],102.993
14,C=CCN1C(=O)CC2(C1=O)C(=O)N(CCCn1c(=O)n(C)c3ccccc31)c1ccc(Cl)cc12 (stereo not drawn) [CBK075411],109.934
15,Cc1ccc(C(=O)Nc2ccccc2C(=O)O)cc1S(=O)(=O)NCc1ccccc1 [CBK263212],98.945
16,COc1ccc(OC[C@@H](N)C(C)C)cc1 [CBK284299],80.3811
17,CCN(CC)C(=O)CN1CCN(c2nccnc2OCCN2C(=O)CCC2=O)CC1 [CBK084297],78.7901
18,CCc1ccc(CNC(=O)c2ccc3c(c2)NC(=O)C(N2CCOCC2)S3)cc1 (stereo not drawn) [CBK071737],105.142
19,c1ccc(-c2nccnc2NCc2ccco2)cc1 [CBK088642],127.161
20,O=C(Nc1cc2ccccc2c(N2CCNCC2)n1)c1ccccc1 [CBK028423T],92.9483
21,COc1cccc(CC(=O)NCC(c2cccs2)N2CCOCC2)c1 (stereo not drawn) [CBK305621],68.3072
22,Cc1noc(C)c1S(=O)(=O)NC1CCN(Cc2ccccc2)CC1 [CBK062028],84.969
23,C=CCc1ccc(OCC(=O)NN)c(OC)c1 [CBK261831],101.489
24,O=[N+]([O-])c1cc(S(=O)(=O)Nc2ccc3[nH]ncc3c2)ccc1Cl [CBK062537],84.6203
25,Cc1c(C(=O)NCCCCn2ccnc2)oc2c(C)cccc12 [CBK283315],89.7451
26,COc1cccc(Cn2c(=O)c3sccc3n(CC(=O)NCc3ccc(C)cc3)c2=O)c1 [CBK300533],93.4947

row,Structure (SMILES),% of control remaining
1,Cc1ccc(-c2nc(C)c(C(=O)NCc3ccnc(-n4ccnc4)c3)s2)o1 [CBK298322],70.762
2,Cc1cc(=O)[nH]c(SCCC(=O)O)n1 [CBK268242],100.91
3,O=C(NCCCc1ccccn1)c1cc(-c2cccs2)no1 [CBK282652],54.9192
4,O=S(=O)(c1ccc(OC(F)(F)F)cc1)N1CCc2ccccc21 [CBK044279],53.9935
5,COc1cc(C2c3c(-c4cc(C)c(C)cc4O)n[nH]c3C(=O)N2CCO)cc(Br)c1O (stereo not drawn) [CBK269009],82.4105
6,CCCC/C=C/c1cncc(N2CCCC2CO)n1 (stereo not drawn) [CBK065402],130.48
7,COCc1ccsc1C(=O)Nc1ncn(CC(=O)N2CCCCCC2)n1 [CBK304160],20.3104
8,CCN1CCN(Cc2cnc(-c3ccccn3)nc2)CC1=O [CBK306678],51.9439
9,Cc1nc(C2CCN(C(=O)c3ccn(C)n3)CC2)c2sccn12 [CBK285202],80.1903
10,N#CCCCN1CCCN(c2nccc(OCC3COc4ccccc4O3)n2)CC1 (stereo not drawn) [CBK083977],93.6287
11,COCC1(C(=O)N2CC(=O)N(c3ccc(Cl)cc3)CC2C)CCC1 (stereo not drawn) [CBK306674],60.4591
12,CCn1nc(NC(=O)CCn2c(C(F)F)cc3cccnc32)cc1C [CBK285072],103.517
13,Cc1ccc(Cc2cnc(NC(=O)NCCN3CCOCC3)s2)cc1F [CBK305449],63.3662
14,O=C(Nc1cccc(O)c1)c1ccc(NC(=O)C2CCCO2)cc1 (stereo not drawn) [CBK269746],97.3872
15,c1ncc(N2CCCC2)nc1OCCN1CCOCC1 [CBK113430],94.3348
16,Cc1ccc2nc(-c3ccc(N4C(=O)CC(N5CCN(CCOCCO)CC5)C4=O)cc3)sc2c1 (stereo not drawn) [CBK265362],83.7597
17,Cc1[nH]nc(Nc2ccc(I)cc2)c1[N+](=O)[O-] [CBK262748],94.5092
18,O=C(NC1CCCCC1)N[C@H]1CO[C@H]2[C@@H]1OC[C@@H]2n1cc(-c2ccccc2)nn1 [CBK289505],114.851
19,O=C(Nc1nnn[nH]1)C1(c2ccc([N+](=O)[O-])cc2)CCCC1 [CBK267237],123.993
20,O=C(O)CNC(=O)/C(=C\c1ccc(F)cc1)NC(=O)c1ccco1 [CBK263718],101.111
21,OCCC1CCCCN1c1cncc(-c2cccs2)n1 (stereo not drawn) [CBK065758],89.1511
22,NC(=O)c1c(NC(=O)CCN2C(=O)c3cccc([N+](=O)[O-])c3C2=O)sc2c1CCCC2 [CBK263132],91.0278
23,CN(CC(=O)N1CCCCCC1)S(=O)(=O)c1cc(Cl)ccc1Cl [CBK091841],89.2987
24,CC(=O)Nc1cccc(-c2cnc(NCc3ccc4c(c3)OCO4)c(C(=O)NCC3COc4ccccc4O3)c2)c1 (stereo not drawn) [CBK138473T],91.978
25,COC(=O)CCc1ccc(S(=O)(=O)N2CCN(Cc3cccc4cccnc34)CC2)cc1 [CBK062969],89.5149
26,OCC[C@H]1CN2CCCC2CN1Cc1cccn1-c1cccc(F)c1 (stereo partly drawn) [CBK282985],105.431
